The campaign covered roughly 390,000 compounds. About 150 (0.038%) were called active. The inconclusive results got no clear call from the source; some entries with a clear call stand among them for comparison. Calls follow the shape of the dose curve; as a rule, active = well fitted inhibition curve with a large enough effect; inconclusive = small, poorly fitted or top-dose-only effect; inactive = no such curve, though single readings can be large or run the other way. Potencies beside an inconclusive call are fits to weak or partial responses and may not hold up.
Target: Regulator of G-protein signaling 4 (Homo sapiens) (UniProt P49798)
UniProt P49798, sequence (P49798 whole entry, looked up): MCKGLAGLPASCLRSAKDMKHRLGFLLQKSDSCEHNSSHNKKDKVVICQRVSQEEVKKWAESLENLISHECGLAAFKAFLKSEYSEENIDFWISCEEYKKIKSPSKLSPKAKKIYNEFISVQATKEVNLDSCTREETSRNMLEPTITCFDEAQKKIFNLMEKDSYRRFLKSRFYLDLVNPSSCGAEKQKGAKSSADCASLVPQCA
Assay: Inhibitors of Regulator of G Protein Signaling (RGS) 4: qHTS; also: nearly all actives have a fitted effect of over 75% in size
Conditions: Transcreener GDP fluorescence polarization, RGS4-accelerated GTP hydrolysis; series mostly up to 114 µM; activity change, negative = inhibition: at the top concentration
Summary of the method: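 MLSMR compounds (23 nl, pin-transferred) preincubated 10 min at room temperature with a 500nM (2x) first reagent, then RGS4 at 900nM (2x) plus Transcreener GDP mix added; fluorescence polarization (620/688 nm) read before and after 90 min at 30 °C.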
% is scaled to controls: 0 for no effect and ±100 for the full control effect; potency is read from the fitted curve at half-maximal effect; tags tell the direction and shape of the fitted curve.

| Structure (SMILES) | activity change, negative = inhibition | Potency |
| --- | --- | --- |
| COc1ccccc1CNC(=O)CN(C)CC(=O)Nc1ccc(F)c(F)c1F | inactive: 12.7% |  |
| O=C(Cn1c(=O)oc2ccccc21)Nc1ccc(Cl)cc1Cl |  | inconclusive: 56.2 µM [inhibitor, partial curve, poor fit] |
| COc1cccc(CNC(=O)CCCc2cn(C)c3ccccc23)c1 |  | inconclusive: 89.1 µM [inhibitor, single point] |
| O=C(NCCN1CCN(c2ccccc2F)CC1)c1ccc2nc3ccccc3c(=O)n2c1 | inactive: 0.394% |  |
| Cc1ccc(/C=C/C(=O)NCC2COc3ccccc3O2)o1 (stereo not given) |  | inconclusive: 35.5 µM [inhibitor, full curve, poor fit] |
| Cc1cc(C(=O)COc2ccccc2Cl)c(C)n1-c1ccc2c(c1)OCO2 | inactive: -33.4% |  |
| Cc1nc(-c2nc(C(=O)NNS(C)(=O)=O)cs2)cs1 | inactive: -10.4% |  |
| CCOc1cc(N2CCOCC2)c(OCC)cc1NC(C)C(=O)N1CCN(CC)CC1 (stereo not given) |  | inconclusive: 50.1 µM [inhibitor, partial curve, poor fit] |
| N#C/C(=C\c1ccco1)C(=O)NCc1ccccc1 | inactive: -10.3% |  |
| O=S(=O)(Nc1nc2ccccc2[nH]1)c1ccc(Cl)cc1 | inactive: -5.17% |  |
| FC(F)(F)c1cc(N2CCOCC2)nc(-c2ccccc2)n1 |  | inconclusive: 28.2 µM [inhibitor, full curve, poor fit] |
| COc1cc(NC(=O)CN2C(=O)c3ccccc3Sc3ccc(C(=O)N4CCOCC4)cc32)cc(OC)c1OC |  | inconclusive: 17.8 µM [inhibitor, full curve, poor fit] |
| Cc1ccc2cc(CN(C(=O)c3ccco3)c3cccc(C)c3C)c(=O)[nH]c2c1 |  | inconclusive: 79.4 µM [inhibitor, partial curve, poor fit] |
| CCOC(=O)c1ccc(NCC(O)COc2ccccc2)cc1 (stereo not given) |  | inconclusive: 70.8 µM [inhibitor, single point] |
| COc1ccc(C(=O)Nc2ccc3c(c2)C(=O)c2ccccc2C3=O)cc1OC |  | inconclusive: 79.4 µM [inhibitor, partial curve, poor fit] |
| COc1ccc(N(Cc2ccccc2)C(=O)c2nc(S(C)(=O)=O)ncc2Cl)cc1 |  | inconclusive: 31.6 µM [inhibitor, full curve, poor fit] |
| Cn1c(SCC(=O)N2CCN(c3ccccc3)CC2)nnc1-c1cc2ccccc2o1 | inactive: 19.6% |  |
| COc1ccc(CNC(=O)CN2C(=O)c3ccccc3C2=O)cc1 |  | inconclusive: 79.4 µM [inhibitor, single point] |
| OC(COCc1ccccc1)CN1CCN(c2ccccc2)CC1 (stereo not given) | inactive: -16.7% |  |
| CC(C)(C)C(=O)N1CCN(C(c2ccccc2)c2ccccc2)CC1 | inactive: 8.92% |  |
| CC(C)c1nnc(NC(=O)c2cccc(NC(=O)C(F)(F)F)c2)s1 |  | inconclusive: 89.1 µM [inhibitor, single point] |
| COc1ccccc1NCC(=O)N/N=C(\C)c1cccs1 |  | inconclusive: 56.2 µM [inhibitor, partial curve, poor fit] |
| CC(OC(=O)C1=Cc2ccccc2OC1)C(=O)NCC1CCCO1 (stereo not given) |  | inconclusive: 56.2 µM [inhibitor, partial curve, poor fit] |
| Cc1ccc(SC[C@H](C)CN2CC[C@H](C)CCC2=O)cc1 | inactive: 23.4% |  |

| Structure (SMILES) | activity change, negative = inhibition | Potency |
| --- | --- | --- |
| CCC(=O)Nc1sc(Cc2ccccc2)c(C)c1C(N)=O |  | inconclusive: 100 µM [inhibitor, single point] |
| COc1ccc(/C=C\C(=O)NCC(=O)N/N=C/c2ccc(O)cc2O)cc1 | inactive: -38.2% |  |
| CCC(=O)Nc1nc(C)c(-c2csc(Nc3cccc(O)c3)n2)s1 |  | inconclusive: 89.1 µM [inhibitor, partial curve, poor fit] |
| CCOC(=O)c1c(-c2ccc(C)o2)csc1NC(=O)CN1CCC(C(N)=O)CC1 |  | inconclusive: 44.7 µM [inhibitor, partial curve, poor fit] |
| CCOC(=O)c1c(NC(=O)CN2CCCCC2)sc2c1CCN(C(=O)OCC)C2 | inactive: 7.98% |  |
| CCOCCCn1c(SCC(=O)Nc2cc(C)ccc2C)nc2c(oc3ccccc32)c1=O | inactive: -4.38% |  |
| COc1cccc(-n2nnc3c(=O)n(Cc4ccc(C)cc4)cnc32)c1 | inactive: 20.4% |  |
| COc1ccc(-c2cc(-c3ccccc3)nc(SCC(=O)Nc3ccccc3C)c2C#N)cc1 |  | inconclusive: 39.8 µM [inhibitor, partial curve, poor fit] |
| C#CCOCCOCCOCCNc1nc(N2CCN(C(=O)CCCCCCCCCCNC(=O)[C@H]([C@@H](C)CC)n3cc(CCCCN=C(N)N)nn3)CC2)nc(N2CCN(C(=O)CCCCCCCCCCNC(=O)[C@@H]([C@H](C)O)n3cc(C)nn3)CC2)n1 |  | inconclusive: 39.8 µM [inhibitor, full curve, poor fit] |
| CN1CCC(C(=O)N2CCCC(C(=O)c3ccc4c5c(cccc35)CC4)C2)CC1 (stereo not given) | inactive: -29.3% |  |
| O=C(CCN1CCCCCC1)c1ccccc1 | inactive: 1.87% [at 11.4 µM] |  |
| COC(=O)c1ccccc1-c1c2ccc(=N)cc-2oc2cc(N)ccc12 |  | inconclusive: 100 µM [inhibitor, partial curve, poor fit] |
| CCOc1ccccc1C(c1c(O)nc(SC)[nH]c1=O)c1c(O)nc(SC)[nH]c1=O | inactive: -25.9% |  |
| CCOC(=O)c1c(NC(=S)Nc2ccccc2)sc2c1CCN(CC)C2 | inactive: -35.5% |  |
| C/C(=N\NC(=S)Nc1cccc(C)c1)c1cccc(N)c1 | inactive: -4.49% |  |
| CC[C@@]1(c2ccccc2)C(=O)N(C(=O)OC)N1C(=O)OC | inactive: -28.7% |  |
| CC(=O)c1ccccc1OCC(O)CN1CCN(C(c2ccccc2)c2ccccc2)CC1 (stereo not given) | inactive: -11.1% |  |
| COc1ccc(C(=O)NC2CCCCCCC2)cc1OC | inactive: -18.5% |  |
| CC1CC(C)CN(S(=O)(=O)N2CCCC(C(=O)NCc3ccccc3Cl)C2)C1 (stereo not given) | inactive: 9.32% |  |
| O=C(N/N=C/c1cccc(Br)c1)c1ccc(N2CCCC2=O)cc1 |  | inconclusive: 28.2 µM [inhibitor, full curve, poor fit] |
| COc1ccc(C(=O)C2CCCN(C(=O)c3cccnc3OC)C2)cc1F (stereo not given) |  | inconclusive: 89.1 µM [inhibitor, single point] |
| Cc1ccc(-c2nc(CS(=O)CC(=O)NC(C)CCc3ccccc3)c(C)o2)cc1 (stereo not given) | inactive: -3.94% |  |
| CCCCOc1ccc(C(=O)NNC(=S)NC(=O)CC)cc1 |  | inconclusive: 100 µM [inhibitor, single point] |
| COC(=O)c1sccc1-c1ccc(C(=O)Nc2cccc(Cl)c2)o1 |  | inconclusive: 56.2 µM [inhibitor, partial curve, poor fit] |

| Structure (SMILES) | activity change, negative = inhibition | Potency |
| --- | --- | --- |
| COc1ccc(CNc2nc(-c3ccccc3)nn2S(=O)(=O)c2ccccc2)cc1 | inactive: 3.64% |  |
| COc1ccc(NC(=O)CCS(=O)(=O)c2nc(-c3cccs3)cc(C(F)(F)F)n2)cc1 | inactive: -27.3% |  |
| Cc1cccc(NC(=O)CSc2nc(-c3cccs3)cc(C(F)(F)F)c2C#N)c1C | inactive: -2.16% |  |
| COC(=O)c1c(-c2cccs2)csc1NC(=O)c1cccc(Cl)c1 |  | inconclusive: 17.8 µM [inhibitor, full curve, poor fit] |
| COC(=O)c1c(-c2cccs2)csc1NC(=O)c1ccc(Br)cc1 |  | inconclusive: 112 µM [inhibitor, partial curve, poor fit] |
| CC[Si](CC)(CC)O[C@H]([C@@H](C)COCOC)[C@@H](C)COCc1ccc(OC)cc1 | inactive: 3.41% |  |
| CC1CCc2sc(NC(=S)NC(=O)c3ccccc3)c(C#N)c2C1 (stereo not given) |  | inconclusive: 35.5 µM [inhibitor, partial curve, poor fit] |
| Cc1[nH]n(-c2ccccc2)c(=O)c1C(c1cc(Cl)ccc1O)c1c(C)[nH]n(-c2ccccc2)c1=O |  | inconclusive: 50.1 µM [inhibitor, partial curve, poor fit] |
| COc1cc(OC)c(OC)cc1CN1CCc2nc(Nc3ccc4c(c3)OCCO4)ncc2C1 | inactive: 13.9% |  |
| Cc1cccc(NC(=O)CSc2nnc(-c3ccccc3Br)o2)c1C |  | inconclusive: 100 µM [inhibitor, partial curve, poor fit] |
| COCCCNC(=S)N/N=C/c1ccc(O)cc1 | inactive: 2.16% |  |
| COc1cccc(-n2c(-c3ccccc3)c[nH]c2=S)c1 |  | inconclusive: 50.1 µM [inhibitor, partial curve, poor fit] |
| CC(=O)N1CCc2cc(S(=O)(=O)Nc3cccc(C(F)(F)F)c3)ccc21 |  | inconclusive: 79.4 µM [inhibitor, single point] |
| O=[N+]([O-])c1cccc(/C=N/NC2=NS(=O)(=O)c3ccccc32)c1 |  | inconclusive: 79.4 µM [inhibitor, single point] |
| Cc1ccccc1NC(=O)N1CCN(S(=O)(=O)c2ccccc2)CC1 |  | inconclusive: 17.8 µM [inhibitor, full curve, poor fit] |
| Cc1ccc(NC(=O)CN2C(=O)N/C(=C\c3cccn3-c3cccc(C(=O)O)c3)C2=O)cc1 |  | inconclusive: 89.1 µM [inhibitor, partial curve, poor fit] |
| O=C(N/N=C/c1ccsc1)c1cc(-c2ccncc2)nc2ccccc12 | inactive: 6.26% |  |
| Cc1ccc(C(=O)N2CCc3cc(CNC(=O)CSc4ccccc4)ccc32)cc1 | inactive: 1.61% |  |
| S=C1Cc2ccccc2N1 |  | inconclusive: 79.4 µM [inhibitor, partial curve, poor fit] |
| CC1=CC(=Nc2c(C)n(C)n(-c3ccccc3)c2=O)C=C(C)C1=O |  | inconclusive: 89.1 µM [inhibitor, partial curve, poor fit] |
| CC(/C=N/NC(=O)c1cccc(F)c1)=C\c1ccccc1 |  | inconclusive: 79.4 µM [inhibitor, partial curve, poor fit] |
| CC(=O)c1cccc(N2Cc3ccccc3C2=NC(=O)CCl)c1 |  | inconclusive: 17.8 µM [inhibitor, partial curve, poor fit] |

Reference: PubChem BioAssay AID504845 (National Center for Advancing Translational Sciences (NCATS), 2011)
